Consider 27 compounds from the antibiotic and cytotoxicity screens of Wong et al. (2023).

The other results are listed elsewhere or left out.

The test system of one assay is HSkMC. Briefly: cytotoxicity call (relative viability < 0.9). The note with it: 10 µM.
The next assay has as its system HepG2. Briefly: cytotoxicity call (relative viability < 0.9). The note with it: 10 µM.
In a further assay the test system is S. aureus RN4220. Briefly: growth inhibition call (relative growth <= 0.2). The note with it: 50 µM.

Turning to `C[C@@H]1CCCCO[C@@H](CN(C)C(=O)Nc2ccc(F)cc2)[C@@H](C)CN([C@@H](C)CO)C(=O)c2cc(NC(=O)NC3CCCCC3)ccc2O1`, the cytotoxicity call with HSkMC was “inactive”. Besides, the cytotoxicity call in the assay with HepG2 was “active”. In addition, the growth inhibition call in the assay on S. aureus RN4220 was “inactive”.
With `C[C@@H]1CN([C@@H](C)CO)C(=O)c2cccc(NC(=O)Nc3ccc(C(F)(F)F)cc3)c2O[C@@H]1CN(C)C(=O)NC1CCCCC1`, the cytotoxicity call with HSkMC and in the assay on HepG2 was “inactive” each time. Also, the growth inhibition call in the assay on S. aureus RN4220 was “inactive”.
As for `Cc1cc(C(=O)Nc2cccc3c2O[C@@H](CN(C)C(=O)Nc2ccc4c(c2)OCO4)[C@H](C)CN([C@H](C)CO)C3=O)n(C)n1`, the cytotoxicity call in the assay on HSkMC and in the assay on HepG2 was “inactive” each time. For the same compound, in the assay with S. aureus RN4220, the growth inhibition call was “inactive”.
For `C[C@H](CO)N1C[C@H](C)[C@@H](CN(C)C(=O)c2cccc(F)c2)Oc2cc(-c3cccnc3)ccc2S1(=O)=O`, the cytotoxicity call in the assay on HSkMC and with HepG2 was “inactive” in each case. For the same compound, in the assay with S. aureus RN4220, the growth inhibition call is “inactive”.
With `C[C@@H]1CN([C@@H](C)CO)C(=O)c2cc(NC(=O)CCN3CCOCC3)ccc2O[C@@H]1CN(C)Cc1ccc(C(=O)O)cc1`, the cytotoxicity call in the assay on HSkMC and in the assay with HepG2 was “inactive” throughout. Further, the growth inhibition call with S. aureus RN4220 is “inactive”.
With `CCC(=O)N(C)C[C@@H]1Oc2ncc(C#C[C@H](C)O)cc2C(=O)N([C@H](C)CO)C[C@H]1C`, the cytotoxicity call in the assay with HSkMC and with HepG2 was “inactive” throughout. Further, the growth inhibition call in the assay with S. aureus RN4220 is “inactive”.
For the compound `CC(C)NC(=O)Nc1ccc2c(c1)C(=O)N([C@H](C)CO)C[C@@H](C)[C@H](CN(C)Cc1ccc(C(F)(F)F)cc1)OCCCC[C@H](C)O2`, the cytotoxicity call in the assay with HSkMC is “inactive”. Besides, in the assay with HepG2, the cytotoxicity call is “active”. Besides, the growth inhibition call in the assay on S. aureus RN4220 is “inactive”.
As for `CC(=O)N[C@H](CC(C)C)C(=O)O`, the cytotoxicity call with HSkMC and with HepG2 was “inactive” each time. In addition, the growth inhibition call in the assay with S. aureus RN4220 was “inactive”.
In the case of `COc1ccc(S(=O)(=O)N(C)C[C@H]2Oc3ccc(NS(=O)(=O)c4ccc(F)cc4)cc3CC(=O)N([C@H](C)CO)C[C@@H]2C)cc1`, the cytotoxicity call with HSkMC and with HepG2 was “inactive” throughout. Besides, in the assay with S. aureus RN4220, the growth inhibition call is “inactive”.
Consider `Cc1cc(C(=O)Nc2cccc3c2O[C@H](CN(C)C(=O)NC(C)C)[C@H](C)CN([C@@H](C)CO)C3=O)n(C)n1`, for which the cytotoxicity call in the assay on HSkMC and in the assay on HepG2 was “inactive” throughout. The growth inhibition call in the assay with S. aureus RN4220 is “inactive”.
Take `C[C@H]1CN([C@@H](C)CO)C(=O)c2cc(NS(=O)(=O)c3ccc(F)cc3)ccc2O[C@H]1CN(C)Cc1ccncc1`: the cytotoxicity call in the assay with HSkMC and in the assay with HepG2 was “inactive” throughout. The growth inhibition call with S. aureus RN4220 is “inactive”.
As for `C[C@@H]1CN([C@@H](C)CO)C(=O)c2cc(NC(=O)Cc3cn(C)c4ccccc34)ccc2O[C@H]1CN(C)Cc1ccc(C(=O)Nc2ccccc2N)cc1`, the cytotoxicity call in the assay with HSkMC and in the assay on HepG2 was “inactive” each time. Besides, the growth inhibition call with S. aureus RN4220 was “inactive”.
On to `C=CCOC(=O)O[C@H]1[C@@H](OC)O[C@H](COC(=O)NCCCCCC(=O)NO)[C@@H](OC(=O)[C@H](CC=C)Cc2cccc(Br)c2)[C@@H]1OC(=O)[C@H](CC=C)Cc1ccccc1`, for which the cytotoxicity call with HSkMC and in the assay with HepG2 was “inactive” each time. Moreover, the growth inhibition call with S. aureus RN4220 was “inactive”.
With `Cc1ccc(S(=O)(=O)N(C)C[C@H]2Oc3ccc(NS(=O)(=O)c4cccs4)cc3CC(=O)N([C@@H](C)CO)C[C@H]2C)cc1`, the cytotoxicity call in the assay with HSkMC and in the assay with HepG2 was “inactive” each time. Moreover, in the assay with S. aureus RN4220, the growth inhibition call was “inactive”.
As for `COc1ccc(S(=O)(=O)Nc2ccc3c(c2)C(=O)N([C@@H](C)CO)C[C@H](C)[C@H](CN(C)C(=O)Nc2c(C)noc2C)OCCCC[C@@H](C)O3)cc1`, the cytotoxicity call in the assay with HSkMC and with HepG2 was “inactive” each time. Besides, the growth inhibition call in the assay on S. aureus RN4220 is “inactive”.
As for `C[C@H]1CN([C@@H](C)CO)C(=O)c2cccc(NC(=O)Nc3ccccc3)c2O[C@@H]1CN(C)S(=O)(=O)c1cn(C)cn1`, the cytotoxicity call in the assay on HSkMC and with HepG2 was “inactive” throughout. Moreover, in the assay with S. aureus RN4220, the growth inhibition call was “inactive”.
As to `COc1ccc(NC(=O)N(C)C[C@@H]2Oc3cc(C#CCN(C)C)ccc3S(=O)(=O)N([C@H](C)CO)C[C@@H]2C)cc1`, the cytotoxicity call in the assay with HSkMC and in the assay with HepG2 was “inactive” in each case. Further, the growth inhibition call in the assay on S. aureus RN4220 was “inactive”.
Turning to `Cc1noc(C)c1S(=O)(=O)N(C)C[C@@H]1Oc2ccc(NC(=O)C3CC3)cc2CC(=O)N([C@@H](C)CO)C[C@H]1C`, the cytotoxicity call in the assay on HSkMC and in the assay on HepG2 was “inactive” throughout. Also, the growth inhibition call in the assay with S. aureus RN4220 is “inactive”.
In the case of `CC(=O)OC1CC2(C)C(CC(O)C3C4(C)CCC(O)C(C)C4CCC32C)C1=C(CCC=C(C)C)C(=O)O` (stereo unspecified), the cytotoxicity call with HSkMC and in the assay on HepG2 was “inactive” each time. The growth inhibition call in the assay with S. aureus RN4220 is “active”.
For the compound `COC(=O)[C@@H](Cc1ccccc1)N[C@H](/C=C/C1CC1)[C@@H](O)CCn1cc(-c2ccc(C(=O)NO)s2)nn1`, the cytotoxicity call with HSkMC was “inactive”. Besides, in the assay with HepG2, the cytotoxicity call is “active”. Further, the growth inhibition call in the assay on S. aureus RN4220 was “inactive”.
For `CCN1CCN(C(=O)/C=C\C(=O)O)CC1`, the cytotoxicity call in the assay with HSkMC and in the assay with HepG2 was “inactive” in each case. Besides, the growth inhibition call in the assay with S. aureus RN4220 was “inactive”.
Turning to `C[C@H](CO)N1C[C@H](C)[C@H](CN(C)Cc2ccc(-c3ccccc3)cc2)Oc2c(NC(=O)Nc3ccc(C(F)(F)F)cc3)cccc2C1=O`, the cytotoxicity call in the assay on HSkMC and with HepG2 was “inactive” throughout. Besides, the growth inhibition call in the assay with S. aureus RN4220 was “inactive”.
On to `C[C@H]1CN([C@@H](C)CO)C(=O)c2cccc(NC(=O)c3cnccn3)c2O[C@@H]1CN(C)S(=O)(=O)c1cccs1`, for which the cytotoxicity call in the assay with HSkMC and in the assay with HepG2 was “inactive” throughout. The growth inhibition call in the assay with S. aureus RN4220 was “inactive”.
For the compound `Cc1noc(C)c1NC(=O)Nc1ccc2c(c1)C(=O)N([C@@H](C)CO)C[C@@H](C)[C@H](CN(C)S(=O)(=O)c1ccc(Cl)cc1)OCCCC[C@@H](C)O2`, the cytotoxicity call in the assay with HSkMC and in the assay with HepG2 was “inactive” in each case. In addition, the growth inhibition call in the assay on S. aureus RN4220 was “inactive”.
Regarding `COc1ccccc1-c1cnc2c(c1)C(=O)N([C@H](C)CO)C[C@@H](C)[C@@H](CN(C)C(=O)c1ccncc1)O2`, the cytotoxicity call in the assay with HSkMC and in the assay with HepG2 was “inactive” in each case. In addition, the growth inhibition call in the assay with S. aureus RN4220 was “inactive”.
For the compound `COc1ccc(CN(C)C[C@H]2OCCCC[C@@H](C)Oc3ccc(NS(=O)(=O)c4ccc(F)cc4)cc3C(=O)N([C@@H](C)CO)C[C@H]2C)cc1`, the cytotoxicity call in the assay with HSkMC and in the assay on HepG2 was “inactive” each time. Besides, in the assay on S. aureus RN4220, the growth inhibition call is “inactive”.
Take `COc1ccc(CN(C)C[C@@H]2Oc3ccc(NS(=O)(=O)c4c(C)noc4C)cc3CC(=O)N([C@@H](C)CO)C[C@H]2C)cc1`: the cytotoxicity call in the assay on HSkMC (human skeletal muscle cells) and with HepG2 was “inactive” each time. Further, the growth inhibition call in the assay on S. aureus RN4220 was “inactive”.
